Test results published in paper PMC4336329 (PLoS ONE, 2015).
Hit rate of the full screen: of about 310,000 compounds, about 2,200 (0.71%) showed an effect of 50% or more. The effect is printed as a negative number. The list shows a part of the results. Where a SMILES comes first, the peptide text is derived from it. The star is where a group is joined. Cbz = O=C(OCc1ccccc1)*

Target: human ether-à-go-go-related gene (hERG) potassium channel (human, UniProt Q12809)
Assay: primary screen, population patch clamp on CHO cells stably expressing hERG

Sequence of human ether-à-go-go-related gene (hERG) potassium channel (Q12809 whole entry, looked up): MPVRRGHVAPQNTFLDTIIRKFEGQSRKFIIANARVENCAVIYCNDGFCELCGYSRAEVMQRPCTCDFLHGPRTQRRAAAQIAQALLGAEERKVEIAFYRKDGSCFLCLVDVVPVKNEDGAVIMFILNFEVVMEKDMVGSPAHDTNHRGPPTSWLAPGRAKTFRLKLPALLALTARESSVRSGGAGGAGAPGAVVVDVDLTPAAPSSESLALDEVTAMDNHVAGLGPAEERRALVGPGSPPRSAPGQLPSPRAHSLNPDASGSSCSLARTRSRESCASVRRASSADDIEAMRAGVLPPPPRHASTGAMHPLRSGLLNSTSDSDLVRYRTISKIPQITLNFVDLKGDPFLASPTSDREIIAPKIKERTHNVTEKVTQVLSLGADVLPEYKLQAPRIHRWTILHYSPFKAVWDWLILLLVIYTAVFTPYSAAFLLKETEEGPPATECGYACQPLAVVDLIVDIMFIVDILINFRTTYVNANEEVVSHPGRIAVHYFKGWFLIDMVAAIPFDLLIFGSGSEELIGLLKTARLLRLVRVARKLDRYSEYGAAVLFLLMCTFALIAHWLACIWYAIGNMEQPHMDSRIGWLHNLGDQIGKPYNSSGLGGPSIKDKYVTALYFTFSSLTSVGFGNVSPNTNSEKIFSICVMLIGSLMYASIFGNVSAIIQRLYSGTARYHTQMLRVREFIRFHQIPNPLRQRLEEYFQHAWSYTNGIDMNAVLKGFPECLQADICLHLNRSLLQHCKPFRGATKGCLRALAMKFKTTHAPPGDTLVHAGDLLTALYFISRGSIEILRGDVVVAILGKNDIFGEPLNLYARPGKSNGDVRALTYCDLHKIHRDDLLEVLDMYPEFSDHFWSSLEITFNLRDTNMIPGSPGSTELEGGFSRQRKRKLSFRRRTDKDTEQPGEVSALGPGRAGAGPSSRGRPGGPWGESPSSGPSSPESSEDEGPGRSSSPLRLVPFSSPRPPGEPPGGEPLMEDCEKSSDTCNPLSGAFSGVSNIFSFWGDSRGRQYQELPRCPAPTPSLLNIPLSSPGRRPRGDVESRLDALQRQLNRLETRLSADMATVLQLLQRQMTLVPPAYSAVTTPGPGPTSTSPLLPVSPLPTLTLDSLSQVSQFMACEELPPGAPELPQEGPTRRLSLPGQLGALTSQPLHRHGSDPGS

Structure (SMILES)	hERG current change (%, negative = inhibition) at 1uM
CC(=O)NCC(=O)N(c1c(C)n(C)n(-c2ccccc2)c1=O)C1(C(=O)NC2CCCC2)CCCCC1	10.6%
COc1nccnc1NS(=O)(=O)c1ccc(NC(=S)NC(=O)c2cccnc2)cc1	15%
CC(C)(C)c1ccc(C(=O)N2CCCCCC2=O)cc1	8.85%
Cc1c(C(=O)NCc2cccnc2)sc2nc(-c3ccc(F)cc3)cn12	-26.1%
O=C(O)C1C2C=CC(O2)C1C(=O)Nc1ccc(S(=O)(=O)N2CCc3ccccc32)cc1 (stereo not shown)	24.4%
O=C(Nc1ccccc1N1CCOCC1)c1cc(=O)[nH]c2ccccc12	4.47%
COc1ccc(-n2c(C)cc(C(=O)CN3C(=O)c4ccccc4C3=O)c2C)cc1	13.5%
O=C(Nc1ccc(OC(F)(F)F)cc1)Oc1ccccc1N1CCCCC1	10.3%
COc1cc(C)ccc1OCCCCNCc1ccccc1.O=C(O)C(=O)O	14.2%
Cc1cccn2c(=O)c3cc(C(=O)NC4CCCCC4)c(=N)n(Cc4ccccc4)c3nc12	-40.2%
O=C(NCCCN1CCc2ccccc2C1)C1CCN(c2nnc(-n3cccc3)s2)CC1	-20.7%
CCC(=O)N1c2ccccc2NC2=C(C(=O)CCC2)C1c1ccc(N(C)C)cc1 (stereo not shown)	6.1%
O=C(/C=C/Nc1ccccc1C(F)(F)F)c1ccco1	7.89%
N#CC1C=Cc2ccccc2N1C(=O)c1ccccc1 (stereo not shown)	11.4%
CCOc1ccccc1N1CCN(S(=O)(=O)CC)CC1	9.07%
COc1ccc(-c2cc(=O)oc3c(C)c(OCC(=O)NCC4CCC(C(=O)O)CC4)ccc23)cc1 (stereo not shown)	3.63%
CC(=O)c1ccc(OC(NC(=O)Cc2ccccc2)C(Cl)(Cl)Cl)cc1 (stereo not shown)	1.7%
O=C(CNC(=O)c1ccccn1)N/N=C/c1ccccc1	3.82%
Nc1n[nH]c(N)c1N=Nc1ccccc1	3.03%
COc1cccc(NC(=O)Nc2ccc(C)c(Cl)c2)c1	6.29%
O=C(NCc1nc2ccccc2[nH]1)C1=C[C@H](C2CC2)C[C@H](OCc2ccc(CO)cc2)O1	5.95%
CCc1ccccc1NCC(=O)Nc1ccccc1C(=O)OC	5.18%

Structure (SMILES)	hERG current change (%, negative = inhibition) at 1uM
Cc1ccc(NC(=O)CN2CCC(NC(=O)Cc3ccccc3)CC2)cc1C	-1.89%
CC(=O)Nc1nnc(SCc2ccccc2F)s1	13.1%
COc1ccc(C(=O)O)cc1NC(=S)NC(=O)CSc1ccc(Cl)cc1	-0.389%
COc1ccc(N(C(=O)c2ccco2)C(C(=O)NC2CCCC2)c2cccnc2)c(OC)c1 (stereo not shown)	7.17%
COC(=O)C1=C(c2ccc(OC(F)(F)F)cc2)C[C@@H]2CC[C@H]1N2C(=O)NCc1cc(C)oc1C(F)(F)F	14.7%
COc1ccc(C(C)(C)C)cc1NC(=O)c1[nH]c(C)c(C(C)=O)c1C	8.8%
CCc1nnc(NC(=O)CSc2nc3c(c(=O)n2C)SC(C)C3)s1 (stereo not shown)	7.03%
COc1cccc(C2CC(c3ccccc3OC)n3ncnc3N2)c1 (stereo not shown)	-0.386%
COCc1ccc(C(=O)N2CCCC(N(C)Cc3ccccc3)C2)s1 (stereo not shown)	11.1%
COc1ccc(-n2c(Cc3cccn3C)nnc2SCC(=O)Nc2ccccc2)cc1	-4.09%
COc1ccc(CCN(Cc2cc3ccc(C)cc3[nH]c2=O)C(C)=O)cc1OC	-26.6%
CCCCOC(=O)Cn1c(=O)c2c(nc(Br)n2Cc2ccccc2)n(C)c1=O	-6.02%
CCOc1ccccc1OCCOc1cccc(C(F)(F)F)c1	13.6%
Cc1onc(-c2ccccc2)c1C(=O)NNC(=S)NC(=O)c1ccc(Cl)cc1Cl	2.99%
O=c1cc(CSc2nnnn2-c2ccccc2)[nH]c2[nH]n(-c3ccccc3)c(=O)c12	-0.986%
Cc1ccc(C2CC(c3cccs3)=NN2C(=O)CSc2nc3ccccc3o2)cc1 (stereo not shown)	16.9%
NS(=O)(=O)c1ccc(N=Cc2c(O)n(-c3ccccc3)c(=O)[nH]c2=O)cc1	11.9%
COc1ccccc1CNC(=O)C1CCC(CNS(=O)(=O)c2ccc(C)cc2)CC1 (stereo not shown)	18%
COc1cccc(NC(=O)c2cnc(SC)nc2)c1	16.1%
CC(C)C1N=C(c2ccc3c(c2)OCO3)CC(c2ccccc2O)N1 (stereo not shown)	-2.54%
CC1=C(C(=O)Nc2ccccc2F)C(c2ccsc2)C2=C(CC(c3ccccc3)CC2=O)N1 (stereo not shown)	-4.79%
C=CCn1c(SCC(=O)Nc2ccc(Br)cc2)nc(O)c(CC)c1=O	0.7%

Structure (SMILES)	hERG current change (%, negative = inhibition) at 1uM
COc1cccc(C(=O)NC2CC3CCCC(C2)N3S(=O)(=O)c2ccccc2)c1 (stereo not shown)	-8.93%
CCCCNC(=O)c1cccc(NC(=O)C(=O)c2ccccc2NC(C)=O)c1	14%
CCN(CC)S(=O)(=O)c1cccc(NC(=O)C2SC(=Nc3ccc(C)cc3C)C(C(=O)NCC3CCCO3)=C2N)c1 (stereo not shown)	3.68%
O=C(CNC(=O)c1ccccc1Cl)Nc1ccncc1	11.5%
COc1cccc(C2CC(C(F)(F)F)n3ncc(C(=O)Nc4c(C)n(C)n(-c5ccccc5)c4=O)c3N2)c1 (stereo not shown)	12%
CC(C)(C)OC(=O)NNC(=O)C12CC3CC(CC(C3)C1)C2	6.73%
NC(=O)COC(=O)c1ccccc1OCc1ccc(Cl)cc1	7.36%
Cn1ncc2c(N3CCCCC3)nc(NCCCO)nc21	15.4%
O=C(N/N=C/c1ccc([N+](=O)[O-])o1)c1ccccc1NS(=O)(=O)c1cccs1	-3.77%
Cc1nc(SCC(=O)c2ccccc2)c([N+](=O)[O-])[nH]1	12.7%
CCC(c1nnnn1Cc1cccs1)N1CCN(C2CCCC2)CC1.Cl (stereo not shown)	4.77%
COc1ccc(OC)c(NC(=O)CCN2CCN(CCO)CC2)c1	10.9%
Cc1ccc2c(C)c(C(=O)NCC(C)(C)N3CCOCC3)oc2c1C	-0.765%
O=C(O)c1ccc(Cl)c(S(=O)(=O)NCc2ccco2)c1	9.31%
COc1cc(NC(=O)CCS(=O)(=O)c2ccc3c(c2)oc(=O)n3C)cc(OC)c1	-7.08%
O=C(NCCc1ccccc1)c1ccc(Cl)c([N+](=O)[O-])c1	-3.49%
COc1ccc(CNC(=O)CN(CC2CCCO2)C(=O)CNS(=O)(=O)c2ccc(C)cc2)cc1 (stereo not shown)	1.68%
CNS(=O)(=O)c1cccc(C(=O)NCC(c2ccco2)N(C)C)c1 (stereo not shown)	6.66%
Cn1c(=O)c2ccccc2n(CC(=O)NC2CCCC2)c1=O	7.21%
Cc1ccc2c(n1)sc1c(-c3ccc(Br)cc3)c(C#N)c(N)nc12	9.19%
C/C(CC(=O)Nc1ccc(F)cc1)=N\NC(=O)COc1ccccc1	8.91%
Cc1ccc(C(=O)Nc2cccnc2Oc2ccc(Cl)cc2)cc1	11.1%

Structure (SMILES)	hERG current change (%, negative = inhibition) at 1uM
Cc1ccc2c(C)c(C(=O)NCCN3CCOC3=O)oc2c1C	6.97%
O=C(CCN1CCOCC1)Nc1ccc(Br)cc1C(=O)c1ccccc1	-0.737%
COc1ccc(CCn2c(O)c(C=NCCN3CCCCC3)c(=O)[nH]c2=O)cc1OC	-3.3%
CC1Sc2ccc(S(=O)(=O)CCC(=O)N3CCCC3)cc2NC1=O (stereo not shown)	11.1%
COc1ccccc1NC(=O)C(=O)N1CCCC1	13%
COc1ccc(S(=O)(=O)NC(C)C(=O)Nc2ccc3c(c2)OCO3)cc1OC (stereo not shown)	18.7%
COc1cc(-c2nnn(Cc3ccccc3C)n2)cc(OC)c1OC	14.9%
Cc1ccnc(N2C(=O)C3C4CC(C(Br)C4Br)C3C2=O)c1 (stereo not shown)	14.4%
COc1ccc(C(C(=O)NCc2ccccc2)N(Cc2ccco2)C(=O)c2cnccn2)cc1 (stereo not shown)	9.23%
Cc1ccc(S(=O)(=O)N(C)CC(=O)OCC(=O)Nc2ccccc2)cc1	7.03%
COC(=O)C1CCCN1C(=O)C1CCCN1C(=O)CNC(=O)OCc1ccccc1 (stereo not drawn) (Cbz-Gly-Pro-Pro-OMe; configuration not given here)	10.6%
COc1ccc2c(c1)C(C)=CC(C)(C)N2C(=O)CN1C(=O)CCC1=O	-0.218%
CCOC(=O)c1c(-c2ccccc2)csc1NC(=O)c1cc(-c2ccccc2OC)on1	-6.23%
CN(C)C=O.Cc1ccc(S(=O)(=O)N(C)C)cc1NC(=S)Nc1ccc2[nH]c(=O)[nH]c2c1	17%
Cc1cc(C(=O)NC2CCCc3c2cnn3-c2ccc(C(C)(C)C)cc2)nn1C (stereo not shown)	16.5%
COc1ccccc1CNC(=O)CSc1nc(=O)n(Cc2ccncc2)c2c1CCC2	18.2%
Cn1c(CSCc2ccccc2Cl)nnc1SCC(=O)Nc1nccs1	2.67%
O=C(Nc1cccc(Cl)c1)c1cnn2cccnc12	12.9%
CCCCOC(=O)c1cc(C)nc2ccc(Br)cc12	9.64%
